This note sets out measurements from PubChem BioAssay (NCATS).

Assay [1] in a line: qHTS Assay for Lipid Storage Modulators (AID 1519). The following applies: Drosophila S3 cells, BODIPY lipid droplet/cell ratio, laser cytometry, cells loaded with oleic acid. The gist of the method:
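Cells seeded at 5,000 per well were treated with compounds over a concentration series and loaded with oleic acid (400 uM, as added). Lipid droplet fluorescence (488 nm excitation, 500-530 nm channel) was read by laser-scanning cytometry and normalized to 20 uM Triacsin C.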
Background: In qHTS, concentration-response curves come from the screen itself.

Assay [2] can be described thus: qHTS Assay for Modulators of Human Peripheral Myelin Protein 22 (PMP22) Expression/Activity (AID 1967). Particulars: Cell-based PMP22 reporter, dual-color luciferase ratio. In short, it runs like this: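 Mouse MSC80 Schwann line, Pmp22 promoter–CBG68 reporter, EF-alpha–CBR internal control. 24h compound exposure, 37 °C/5% CO2, DMEM + 10% FBS. Readout: corrected green/red luminescence ratio, normalized to untreated cells; concentration-response curves fitted and classified.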

Assay [3] in a line: qHTS assay for small molecule antagonists of retinoid X receptor alpha signaling (AID 588546).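 Note: cells stimulated with 9-cis-retinoic acid as agonist; % is set by controls: 0 for no effect and ±100 for the full control effect.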 The following applies: HEK293T RXRa-UAS-bla, beta-lactamase ratio, antagonist mode; measured here: W530 green channel, cytotoxicity proxy. The gist of the method: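 Beta-lactamase reporter inhibition, read as CCF4 fluorescence ratio (ex 405, em 460/530 nm) after 2 h at RT. HEK293T UAS-bla cells, 2500/well, were stimulated with 9-cis-RA at 500 or 100 nM final alongside test compound for 18 h at 37 C.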

The nature of assay [4]: qHTS drug screen for cell cycle checkpoint inhibitors in PARPi-resistant BRCA-mutant ovarian cancer cell lines. (AID 1963452). Particulars: PEO1/OlaR viability, CellTiter-Glo luminescence, 96 h. The gist of the method:
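PEO1, PEO4 and PEO1/OlaR ovarian cancer cells, 600 per well, exposed 96 h at 37C to a dilution series. Viability read by CellTiter-Glo luminescence, normalized to DMSO and empty wells; activity summarized as Z-AUC.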

Assay [5] is described as follows: qHTS for identification of novel therapeutic agents for treatment of microphthalmiaassociated transcription factor (MiT) renal cell carcinoma (RCC) (AID 1963991).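 For z-score: curves scaled with 100% = DMSO viability and 0% = empty wells.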 The following applies: CellTiter-Glo, 48 h; for z-score: stronger effect = lower value. In short, it runs like this:
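UOK109/UOK124/UOK145 (TFE3 fusions, three partners); 500 cells/well; MIPE v4.0, 1912 cpds, 11 conc.; 48 h, 37 C; CellTiter-Glo, 15 min RT; lum. Norm.: DMSO 100%, empty 0%.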

Assay [6] in a line: qHTS Validation Assay to Find Inhibitors of Chronic Active B-Cell Receptor Signaling (AID 485345). Particulars: ABC-DLBCL cells, chronic BCR signaling reporter. The gist of the method: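 TMD8 ABC-DLBCL cells with dox-inducible green luciferase–IκBα fusion and red native luciferase; compounds 46 uM–3 nM, 4 h at 37C with doxycycline in 0.5% FBS IMDM. Green/red ratio normalized to basal and 10 uM MG-132.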

A short description of assay [7]: qHTS assay for small molecule antagonists of peroxisome proliferator-activated receptor delta signaling (AID 588535).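 Note: cells co-treated with a PPAR-delta agonist as stimulator during compound exposure.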 The following applies: HEK293T PPARd-UAS-bla, beta-lactamase FRET ratio, 18 h; 460 nm channel. The gist of the method: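 Compounds tested in titration on PPAR-delta-UAS-bla HEK293T cells grown in charcoal/dextran-stripped serum (2%); beta-lactamase activity read via CCF4 emission at 460 and 530 nm.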

Assay [8] can be described thus: qHTS assay for small molecule agonists of retinoid X receptor alpha signaling (AID 588544). Particulars: HEK293T RXRa-UAS-bla, beta-lactamase reporter, 18 h; 530 nm emission.
A short description of assay [9]: Nrf2 qHTS screen for inhibitors: Validation (AID 493153). Particulars: A549 ARE-Fluc reporter, 18-24 h; AC50: CellTiter-Fluor fluorescence read, measured here: cytotoxicity CellTiter-Fluor AC50; viability change: measured here: cytotoxicity max response. In short, it runs like this:
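Concentration-response test in A549 ARE_Fluc reporter cells (5% FBS OPTI-MEM), compound exposure 18-24 h at 37°C, 5% CO2. Cell viability measured first by CellTiter-Fluor fluorescence; ARE-driven luciferase luminescence then measured as Nrf2 activity.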

[10] abbreviates: measured here: cell count channel max response.
The mark [11] stands for this setting: measured here: cell number channel AC50.
Setting [12] is: measured here: lipid (BODIPY) channel AC50.
[13] abbreviates: measured here: lipid channel max response.
Setting [14] is: measured here: red reporter channel AC50, EF-alpha promoter control reporter in MSC80 mouse Schwann cells.
The mark [15] stands for this setting: measured here: PEO1 parental viability.
The mark [16] stands for this setting: TFE3-RCC UOK109 viability, measured here: UOK109 Z-AUC.
[17] abbreviates: TFE3-RCC viability, measured here: UOK124 Z-AUC.
[18] abbreviates: TFE3-RCC viability, measured here: UOK145 Z-AUC.
Where [19] appears, read: TFE3-RCC viability, measured here: UOK145 cell viability.
Where [20] appears, read: measured here: green reporter channel AC50, mouse Pmp22 promoter in mouse Schwann cells.
[21] abbreviates: measured here: CBG/CBR ratio read-out.
Where [22] appears, read: TFE3-RCC viability, measured here: UOK124 cell viability.

“And” between values parts separate entries of the source, which are not always exact repeats. Equal values may be shown once. The list shows a part of the results. Shown are side measurements of this screen, not its main read-out; they come without a call. For part of these data: Compounds called inactive in the main read-out are mostly missing here. For part of these data: Potencies come from curve fits of mixed quality, noted in brackets.
Tags give direction and shape of the fitted curve.

One may read the AC50 as the concentration at which the activity in the assay is half-maximal. For the molecule `CN(C)CCOC(c1ccccc1)c1ccccc1`, the max response in assay [1] (setting [10]) worked out at 29%; in assay [1] (setting [13]), 30.1%; in assay [3], 8.58%. Further, the half-maximal activity concentration (AC50) is 2.82 µM [rising, full curve, poor fit] in assay [1] (setting [11]); 2.51 µM [rising, full curve, poor fit] in assay [1] (setting [12]); 84.9 µM [falling, single point] in assay [2] (setting [14]); 0.0098 µM [rising, full curve, poor fit] in assay [4] (setting [15]); 37.2 µM [falling, single point] in assay [5] (setting [19]). Besides, the z-score in assay [5] (setting [16]) was -0.32; in [5] (setting [17]), 0.742; in assay [5] (setting [18]), -0.0218.

Regarding `OCc1ccc(-c2nn(Cc3ccccc3)c3ccccc23)o1`, the max response was -41.7% in assay [1] (setting [10]) and -63.1% in [1] (setting [13]). The concentration at half-maximal activity (AC50) in assay [1] (setting [11]) was 0.251 µM [falling, full curve, poor fit]; in assay [1] (setting [12]), 0.251 µM [falling, full curve, poor fit]; in assay [2] (setting [20]) it was 37.9 µM [falling, full curve]; in assay [2] (setting [14]), 37.9 µM [falling, full curve, poor fit]; in assay [6] (setting [21]), 13 µM [falling, partial curve]; in [4] (measured here: PEO4 viability), 24.5 µM [falling, single point]. In addition, the z-score in assay [5] (setting [16]) was -0.517; in [5] (setting [17]), 0.527; in [5] (setting [18]), 0.704.

Consider `COc1c2occc2cc2ccc(=O)oc12`, for which the max response in assay [1] (setting [10]) is 27.7% and 129%; in assay [1] (setting [13]), 54.7% and 168%; in [7], 48.6%; in assay [8], 3.61%. In addition, the AC50 was 1.41 µM [rising, full curve] in assay [1] (setting [11]); 4.47 µM [rising, partial curve, poor fit] and 1 µM [rising, full curve] in assay [1] (setting [12]); 24.5 µM [rising, single point] in assay [4] (measured here: PEO4 viability).

Take `CC1(C)C(=O)N(CCN2CCC(C(=O)c3ccc(F)cc3)CC2)c2ccccc21`: the figures for the max response in [1] (setting [10]) and in assay [1] (setting [13]) were 3.54% and -1.98%, respectively. For the same molecule, the half-maximal activity concentration (AC50) in [1] (setting [11]) is 3.98 µM [falling, full curve, poor fit]; in [1] (setting [12]), 3.98 µM [falling, full curve, poor fit]; in assay [2] (setting [20]), 75.7 µM [falling, partial curve]; in [2] (setting [14]), 67.5 µM [falling, partial curve, poor fit]; in assay [5] (setting [22]) it was 37.2 µM [falling, single point]. The viability change in [9] is -8.37%. The z-score was 0.777 in [5] (setting [16]), 0.677 in assay [5] (setting [17]) and 0.696 in [5] (setting [18]).

Turning to `CCCCCCCCCCCC1=C(O)C(=O)C=C(O)C1=O`, the max response was found to be 50% in [1] (setting [10]) and 69% in assay [1] (setting [13]). Also, the AC50 in [1] (setting [11]) is 15.8 µM [rising, full curve, poor fit]; in assay [1] (setting [12]) it was 15.8 µM [rising, full curve, poor fit]; in [4] (setting [15]), 5.49 µM [rising, partial curve]; in [5] (setting [22]), 4.18 µM [falling, partial curve]; in assay [5] (setting [19]) it was 2.64 µM [falling, full curve]. In addition, the z-score is -0.671 in [5] (setting [16]), -0.965 in assay [5] (setting [17]) and 0.109 in [5] (setting [18]).

On to `COC(=O)C1C2CC3c4[nH]c5cc(OC)ccc5c4CCN3CC2CC(OC(=O)c2cc(OC)c(OC)c(OC)c2)C1OC` (stereo not given), for which the max response is 116% in assay [1] (setting [10]) and 143% in assay [1] (setting [13]). The AC50 was 12.6 µM [rising, full curve] in assay [1] (setting [11]); 14.1 µM [rising, partial curve] in [1] (setting [12]); 15.5 µM [falling, partial curve, poor fit] in assay [4] (measured here: PEO4 viability); 29.6 µM [falling, single point] in assay [5] (setting [22]); 29.6 µM [falling, single point] in assay [5] (setting [19]). Besides, the z-score worked out at 0.644 in assay [5] (setting [16]), 0.384 in assay [5] (setting [17]) and 0.501 in assay [5] (setting [18]).

As for `CNC[C@H](O)c1ccc(O)c(O)c1`, the max response in assay [1] (setting [10]) was 36% and 55.6%; in assay [1] (setting [13]) it was 43.5% and 55.9%. In addition, the half-maximal activity concentration (AC50) in assay [1] (setting [11]) is 14.1 µM [rising, partial curve] and 39.8 µM [rising, single point]; in assay [1] (setting [12]), 15.8 µM [rising, partial curve] and 39.8 µM [rising, single point]. Further, the z-score in assay [5] (setting [16]) stood at 0.388; in assay [5] (setting [17]), 0.316; in assay [5] (setting [18]), 1.38.

`O=C1c2ccccc2-c2n[nH]c3cccc1c23`: the results for the max response in assay [1] (setting [10]) and in assay [1] (setting [13]) were 53.2% and 65.4%, respectively. The concentration at half-maximal activity (AC50) in assay [1] (setting [11]) was 3.98 µM [rising, full curve]; in assay [1] (setting [12]), 3.55 µM [rising, full curve]; in assay [2] (setting [20]), 1.69 µM [rising, full curve, poor fit]; in [2] (setting [14]), 84.9 µM [falling, single point]; in assay [6] (setting [21]), 7.31 µM [falling, partial curve]; in assay [6] (measured here: CBR control luciferase (viability counter)), 23.1 µM [rising, partial curve, poor fit]. Further, the AC50 in assay [4] (measured here: PEO4 viability) was 24.5 µM [falling, single point]; in assay [5] (setting [19]), 20.9 µM [falling, partial curve]. In assay [9], the viability change came out at 7.21%. In addition, the z-score is -0.624 in [5] (setting [16]), 0.741 in [5] (setting [17]) and -0.0908 in assay [5] (setting [18]).

On to `Nc1nnc(-c2cccc(Cl)c2Cl)c(N)n1`, for which the max response in assay [1] (setting [10]) worked out at 6.69%; in assay [1] (setting [13]), 6.52%. Besides, the concentration at half-maximal activity (AC50) is 0.316 µM [falling, full curve, poor fit] in assay [1] (setting [11]); 0.355 µM [falling, full curve, poor fit] in assay [1] (setting [12]); 84.9 µM [falling, single point] in assay [2] (setting [14]); 33.2 µM [falling, single point] in [5] (setting [19]). Also, the z-score in [5] (setting [16]) amounted to 0.372; in assay [5] (setting [17]) it was 0.77; in assay [5] (setting [18]), 0.29.
